Hit rate of the full screen: of about 48,000 compounds, about 550 (1.1%) were called active. About 4% were inconclusive and are not listed. Rule as the data show it: active = potency below about 15 µM; inconclusive = mostly about 16 µM to 33 µM; inactive = weaker than that. Some of the results follow.
target: Lysosomal acid glucosylceramidase (Homo sapiens) (UniProt P04062); assay: Glucocerebrosidase; conditions: purified enzyme, resorufin glucoside fluorescence (screen aimed at inhibitors), 20 min; series mostly up to 77 µM;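 also: the screen sought inhibitors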
UniProt P04062, sequence (P04062 whole entry, looked up): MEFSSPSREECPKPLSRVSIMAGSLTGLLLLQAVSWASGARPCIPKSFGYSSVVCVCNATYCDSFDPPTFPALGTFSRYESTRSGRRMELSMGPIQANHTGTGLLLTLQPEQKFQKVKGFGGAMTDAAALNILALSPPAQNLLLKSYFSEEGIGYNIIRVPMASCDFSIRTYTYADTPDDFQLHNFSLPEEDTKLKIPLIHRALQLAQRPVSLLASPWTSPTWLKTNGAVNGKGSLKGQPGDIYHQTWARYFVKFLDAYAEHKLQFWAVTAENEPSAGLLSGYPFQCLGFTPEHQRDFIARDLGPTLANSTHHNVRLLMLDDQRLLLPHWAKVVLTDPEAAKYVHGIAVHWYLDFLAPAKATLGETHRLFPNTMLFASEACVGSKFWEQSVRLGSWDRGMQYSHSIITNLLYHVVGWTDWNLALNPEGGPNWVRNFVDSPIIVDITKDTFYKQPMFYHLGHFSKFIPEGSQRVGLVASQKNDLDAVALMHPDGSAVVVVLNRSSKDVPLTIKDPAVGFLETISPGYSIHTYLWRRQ
In short: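 Compounds titrated against 0.2 nM normal enzyme, 30 uM resorufin beta-D-glucopyranoside substrate, citrate/phosphate buffer with taurocholate and tween-20, pH 5.9. Reaction ran 20 min at room temperature; fluorescence (Ex 548/Em 600) gave AC50.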
Potency is read from the fitted curve at half-maximal effect.

Potency, inactive:
CN(c1ccc(C(=O)Nc2ccccc2C(=O)N2CCCC2)cc1)S(C)(=O)=O > 76.9 µM
COc1cc(C2NC(=O)NC(C)=C2C(=O)OC(C)(C)C)ccc1OCC(N)=O (stereo unspecified) > 76.9 µM
CC1(C(=O)NC2CCCC2)CCC(=O)N1CCC1=CCCCC1 (stereo unspecified) > 76.9 µM
CCC(CC)C(=O)Nc1cccc(-c2nc3ccccc3o2)c1 > 76.9 µM
CSc1nnc2c(n1)OC=Nc1ccccc1-2 > 76.9 µM
CC12CCC(C(=O)N3CCc4ccccc43)(CC1=O)C2(C)C (stereo unspecified) > 76.9 µM
CC(=O)NS(=O)(=O)c1ccc(NS(=O)(=O)c2ccc(F)cc2)cc1 > 76.9 µM
CC(=O)OCc1cc2cccc(C)c2[nH]c1=O > 76.9 µM
Cc1ccc(-c2ccc(=O)n(CC(=O)NCCN(C)C)n2)cc1 > 76.9 µM
COC(=O)c1ccc(CSc2nnc3ccccn23)o1 > 76.9 µM
O=C(CN1C(=O)CSC1=O)NC1CCCCC1 > 76.9 µM
CCOC(=O)c1cc2occc2n1CC(=O)NC1CCCCC1C (stereo unspecified) > 76.9 µM
c1cc(-c2nc3cc(Cc4ccc5oc(-c6ccncc6)nc5c4)ccc3o2)ccn1 > 76.9 µM
O=C(COc1ccc(OCc2ccccc2)cc1)NC1CCOC1=O (stereo unspecified) > 76.9 µM
Cc1cccc(-c2nc(CSCC(=O)N3CCN(c4ccccn4)CC3)c(C)o2)c1 > 76.9 µM
CCn1c(SC(=O)NC2CCCCC2)nnc1-c1cccs1 > 76.9 µM
O=C1CC(c2c[nH]c3ccccc23)C(=O)N1 (stereo unspecified) > 76.9 µM
Cc1oc(-c2ccc(Cl)cc2)cc1-c1nn2c(-c3ccco3)nnc2s1 > 76.9 µM
Cc1ccc(-c2ccc(SCC(=O)Nc3nonc3C)nn2)cc1 > 76.9 µM
CCC(=O)Nc1cc(C)c(NC(=O)CCc2ccccc2)cn1 > 76.9 µM
O=C(c1ccc(F)cc1)N1C2CCC1CC(O)(c1ccccc1F)C2 (stereo unspecified) > 76.9 µM
COc1ccc(S(=O)(=O)CCC(=O)O)cc1 > 76.9 µM
N#Cc1c(NC(=O)CN2CCN(C(=O)c3ccco3)CC2)sc2c1CCCCC2 > 76.9 µM
CCOC(=O)N1CCN(S(=O)(=O)c2c(C)[nH]c(=O)[nH]c2=O)CC1
CSc1snc(SCC(N)=O)c1C#N > 76.9 µM
Cc1cc(C)n2nc(C(=O)NCc3ccco3)nc2n1 > 76.9 µM
CC(OC(=O)c1cccs1)C(=O)NCc1ccco1 (stereo unspecified) > 76.9 µM
CCOC(=O)c1nnn(-c2nn3nnnc3c3ccccc23)c1C > 76.9 µM
N=C1C(c2nc3ccccc3s2)=C(O)CN1CCCO > 76.9 µM
CCOC(=O)c1c(-c2ccccc2)oc2ccc(O)c(CN3CCOCC3)c12 > 76.9 µM
Cc1cccc2sc(NC(=O)CCNS(=O)(=O)c3cccs3)nc12 > 76.9 µM
O=C1Nc2ccc(S(=O)(=O)NCc3ccco3)c3cccc1c23 > 76.9 µM
N#Cc1cc2c(nc1SCc1cccnc1)CCCC2 > 76.9 µM
CC(C)(C)C(=O)NC1CCN(S(=O)(=O)c2cccc(C(F)(F)F)c2)CC1 > 76.9 µM
Cc1cccc(NC(=O)CCc2ccc(C)o2)c1 > 76.9 µM
COc1ccc(-c2csc3nc(C)n(-n4cccc4)c(=O)c23)cc1 > 76.9 µM
CC1(C)OC(=O)C(=CNn2cnc3ccccc3c2=O)C(=O)O1 > 76.9 µM
O=C(Cc1c[nH]c2ccccc12)Nc1nccs1 > 76.9 µM
CCOC(=O)Cc1[nH]nc2c1C(c1ccoc1)C(C#N)=C(N)O2 (stereo unspecified) > 76.9 µM
COc1ccc(-n2ccnc2SCC(=O)NCc2ccc3c(c2)OCO3)cc1 > 76.9 µM
CCc1nnc(NC(=O)CSc2nnc(CSc3nc(C)cc(C)n3)n2C)s1 > 76.9 µM
O=C(Nc1ccccc1O)c1cc(S(=O)(=O)N2CCOCC2)ccc1Cl > 76.9 µM
Cc1cc(C)c(NC(=O)CS(=O)CC(=O)N2CCN(c3ccc(F)cc3)CC2)c(C)c1 (stereo unspecified) > 76.9 µM
COc1ccc(C)cc1NC(=O)NCCC1=CCCCC1 > 76.9 µM
CC1(C)SC2c3ccccc3C(=O)N2[C@@H]1C(=O)NCc1ccco1 (stereo partly specified) > 76.9 µM
CC(C)C(c1nnnn1Cc1cccs1)N1CCN(C2CCCC2)CC1 (stereo unspecified) > 76.9 µM
NC(=O)N1c2ccccc2CC(=O)c2ccccc21 > 76.9 µM
CC(C)[C@H](NC(=O)NC1CCCC1)C(=O)O > 76.9 µM
O=C(O)c1ccc2cc[nH]c2c1 > 76.9 µM
Cc1cc(NC(=O)Cn2nc(C(F)(F)F)c3c2CCC3)no1 > 76.9 µM
O=C(CCn1c(=O)[nH]c2ccccc2c1=O)Nc1ccccc1 > 76.9 µM
O=C(COCc1nc2ccccc2c(=O)[nH]1)NC1CCCC1 > 76.9 µM
COc1ccc(NC(=O)CC2C(=O)N(c3ccc(OC)cc3)C(=O)N2CCN2CCN(C)CC2)cc1 (stereo unspecified) > 76.9 µM
O=C(Nc1cccc2ncccc12)c1cccnc1 > 76.9 µM
O=c1n(-c2ccccc2)c(=O)n2n1CCC2 > 76.9 µM
Cc1cccc(-c2cc3nc(C)cc(NCCCN(C)C)n3n2)c1 > 76.9 µM
Cc1ccc(C2CC(=O)c3cnc(NC(=O)c4ccco4)nc3C2)cc1 (stereo unspecified) > 76.9 µM
O=C(CSc1nnc2sc3ccccc3n12)NCc1ccco1 > 76.9 µM
CCOC(=O)N1CCN(c2ncnc3c2cnn3-c2ccc(Cl)cc2)CC1 > 76.9 µM
CN(C)CCOC(=O)C1(c2ccccc2)CCOCC1 > 76.9 µM
Cc1cccc(C)c1NC(=O)N1CCC(N2CCCCC2)CC1 > 76.9 µM
